Test results published in the supplement of paper PMC12217912.
Some of the results follow. The full chains were built here from the parent and the listed change. Inactive controls read about 0.05.

B1: TEV protease; numbered along this chain (parent)
chain: MGESLFKGPRDYNPISSSICHLTNESDGHTTSLYGIGFGPFIITNKHLFRRNNGTLVVQSLHGVFKVKDTTTLQQHLVDGRDMIIIRMPKDFPPFPQKLKFREPQREERICLVTTNFQTKSMSSMVSDTSCTFPSGDGIFWKHWIQTKDGQCGSPLVSTRDGFIVGIHSASNFTNTNNYFTSVPKNFMELLTNQEAQQWVSGWRLNADSVLWGGHKVFMVKPEEPFQPVKEATQL

Variants of: B1
Test: raw area under fraction-flipped curve 0-4 h after induction (AUC4h, not background-subtracted), DNA-recorder readout of cleavage of the substrate (dimensionless); higher = more cleavage of the substrate by the protease variant
Conditions: temperature: 34 °C; time window: 0-4 h after rhamnose induction
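Also: Bxb1 expression induced with 0.2% (w/v) L-rhamnose at OD600 near 0.5, cultures sampled hourly, flipped fraction per protease–substrate barcode pair counted by paired-end Illumina sequencing.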

| Variant | area with substrate INLYFQS | area with substrate WNLYFQS | area with substrate SNLYFQS | area with substrate TNLYFQS | area with substrate KNLYFQS | area with substrate LNLYFQS | area with substrate YNLYFQS | area with substrate PNLYFQS | area with substrate QNLYFQS | area with substrate VNLYFQS |
| --- | --- | --- | --- | --- | --- | --- | --- | --- | --- | --- |
| MGESLFKGPRDYNPISSSICHLTNESDGHTTSLYGIGFGPFIITNKHLFRRNNGTLVVQSLHGVFKVKDTTTLQQHLVDGRDMIIIRMCKDFPPFPQKLKFREPQREERICLVTTNFQTKSMSSMVSDTSCTFPSGDGIFWKHWIQTKDGQCGSPLVSTRDGFIVGIHSASNFTNTNNYFTSVPKNFMELLTNQEAQQWVSGWRLNADSVLWGGHKVFMVKPEEPFQPVKEATQL [P89C] | 0.0527 | 0.0645 |  |  |  |  |  |  |  |  |
| MGESLFKGPRDYNPISSSICHLTNESDGHTTSLYGIGFGPFIITNKHLFRRNNGTLVVQSLHGVFKVKDTTTLQQHLVDGRDMIIIRMPKDFPPFPQKLKFREPQREERICLVTTNFQTKSMSSMVSDTSCTFPSGDGIFWKHWIQTKDGQCGSPLVSTRDGFIVGIHSASNFTNTNNYFTSVPKHFMELLTNQEAQQWVSGWRLNADSVLWGGHKVFMVKPEEPFQPVKEATQL [N186H] | 0.0577 |  |  |  |  |  |  |  |  |  |
| MGESLFHGPRDYNPISSSICHLTNESDGHTTSLYGIGFGPFIITNKHLFRRNNGTLVVQSLHGVFKVKDTTTLQQHLVDGRDMIIIRMPKDFPPFPQKLKFREPQREERICLVTTNFQTKSMSSMVSDTSCTFPSGDGIFWKHWIQTKDGQCGSPLVSTRDGFIVGIHSASNFTNTNNYFTSVPKNFMELLTNQEAQQWVSGWRLNADSVLWGGHKVFMVKPEEPFQPVKEATQL [K7H] | 0.0899 |  | 0.0141 | 0.0953 |  |  |  |  |  |  |
| MGESLFKGPRDYNPISSSICHLTNESDGHTTSLYGIGFGPFIITNKHLFRRNNGTLVVQSLHGVFKVKDTTTLQQHLVDGRDMIIIRMPKDFPPFPQKLKFREPQREERICLVTTNFQTKSMSSMVSDTSCTFPSGDGIFWKHWIQTKDGQCGNPLVSTRDGFIVGIHSASNFTNTNNYFTSVPKNFMELLTNQEAQQWVSGWRLNADSVLWGGHKVFMVKPEEPFQPVKEATQL [S154N] | 0.0648 |  |  | 0.0799 | 0.0935 | 0.0856 |  |  |  |  |
| MGESLFKGPRDYNPISSSICHLTNESDGHTTSLYGIGFGPFIITNKHLFRRNNGTLVVQSLHGVFKVKDTTTLQQHLVDGRDMIIIRMPKDFPPFPQKLKFREPQREERICLVTTNFQTKSMSSMVSDTSCTFPSGDGIFWKHWIQTKDGQCGSPLVSTRDGFIVGIHSASNFTNTNNYFTMVPKNFMELLTNQEAQQWVSGWRLNADSVLWGGHKVFMVKPEEPFQPVKEATQL [S182M] | 0.0256 |  |  |  |  |  |  |  |  |  |
| MGESLFKGPRDYNPISSSICHLTNESDGHTTSLYGIGFGPFIITNKHLFRRNNGTLVVQSLHGVFKVKDTTTLQQHLVDGRDMIIIRMPKDFLPFPQKLKFREPQREERICLVTTNFQTKSMSSMVSDTSCTFPSGDGIFWKHWIQTKDGQCGSPLVSTRDGFIVGIHSASNFTNTNNYFTSVPKNFMELLTNQEAQQWVSGWRLNADSVLWGGHKVFMVKPEEPFQPVKEATQL [P93L] | 0.0235 |  |  |  |  |  | 0.033 |  |  |  |
| MGESLFKGPRDYNPISSSICHLTNESDGHTTSLYGIGFGPFIITNKHLFRRNNGTLVVQSLHGVFKVKDTTTLQQHLVDGRDMIIIRMPKDFPPFPQKLKFREPQREERICLVTTNFQTKSMSSMVSDTSCTFPSGDGIFWKHWIQTKDGQCGSPLVSTRDGFIVGIHSASNFTNTNNYFTSVPKNFMELLTNQEAQQWVSGWRLNADAVLWGGHKVFMVKPEEPFQPVKEATQL [S209A] | 0.0477 |  | 0.0593 | 0.0758 | 0.0684 | 0.0726 | 0.0622 |  |  |  |
| MGESLFKGPRDYNPISSSICHLTNESDGHTTSLYGIGFGPFIITNKHLFRRNNGTLVVQSLHGVFKVKDTTTLQQHLVDGRDMIIIRMPKDFPPFPQKLKFREPQREERICLVTTNFQTKSMSSMVSDTSCTFPSGDGIFWKHWIQTKDGQCGSPLVSTRDGFIVGIHSASNFTNTNNYFTSVPKNFMELLTNQEAQQWVSGWRYNADSVLWGGHKVFMVKPEEPFQPVKEATQL [L205Y] | 0.0708 | 0.0561 | 0.0772 | 0.0489 |  |  | 0.0572 | 0.0539 | 0.0642 | 0.071 |
| MGESLFKGPRDYNPISSSICHLTNESDGHTTSLYGIGFGPFIITNKHLFRRNNGTLVVQSLHGVFKVKDTTTLQQHLVDGRDMIIIRMPKDFPPFPQKLKFREPQREERICLVTTNFQTKSMSSMVSDTSCTFPSGDGIFWKHWIQSKDGQCGSPLVSTRDGFIVGIHSASNFTNTNNYFTSVPKNFMELLTNQEAQQWVSGWRLNADSVLWGGHKVFMVKPEEPFQPVKEATQL [T147S] | 0.0561 |  |  |  |  | 0.0648 |  |  |  | 0.0448 |
| MGESLFKGPRDYNPISSSICHLTNESDGHTTSLYGIGFGPFIITNKHLFRRNNGTLVVQSLHGVFKVKDTTTLQQHLVDGRDMIIIRMPKDFPPFPQKLKFREPQREEYICLVTTNFQTKSMSSMVSDTSCTFPSGDGIFWKHWIQTKDGQCGSPLVSTRDGFIVGIHSASNFTNTNNYFTSVPKNFMELLTNQEAQQWVSGWRLNADSVLWGGHKVFMVKPEEPFQPVKEATQL [R109Y] | 0.0615 |  |  |  | 0.061 |  |  |  |  |  |
| MGESLFKGPRDYNPISSSICHLTNESDGHTTSLYGIGFGPFIITNKHLFRRNNGTLVVQSLHGVFKVKDTTTLQQHLVDGRDMIIIRMPKDFPPFPQKLKFREPQREETICLVTTNFQTKSMSSMVSDTSCTFPSGDGIFWKHWIQTKDGQCGSPLVSTRDGFIVGIHSASNFTNTNNYFTSVPKNFMELLTNQEAQQWVSGWRLNADSVLWGGHKVFMVKPEEPFQPVKEATQL [R109T] | 0.0628 | 0.0537 |  | 0.0519 | 0.0755 |  | 0.0589 |  |  |  |
| MGESLFKGPRDYNPISSSICHLTNESDGHTTSLYGIGFGPFIITNKHLFRRNNGTLVVQSLHGVFKVKDTTTLQQHLVDGRDMIIIRMPKDFPPFPQKLKFREPQREERICLVTTNFQTKSMSSMVSDTSCTFPSGDGIFWKHWIQTKDGQCGSPLVSTRDGFIVGIHSASNFTNTNNYFTSVPKNFMELLTNQEAQQWVSIWRLNADSVLWGGHKVFMVKPEEPFQPVKEATQL [G202I] | 0.0294 | 0.035 | 0.0524 |  | 0.0647 |  |  | 0.0708 |  |  |

Same assay, conditions: temperature: 34 °C; time window: 0-4 h after rhamnose induction

| Variant | area with substrate RNLYFQS | area with substrate NNLYFQS |
| --- | --- | --- |
| MGESLFKGPRDYNPISSSICHLTNESDGHTTSLYGIGFGPFIITNKHLFRRNNGTLVVQSLHGVFKVKDTTTLQQHLVDGRDMIIIRMPKDFPPFPQKLKFREPQREERICLVTTNFQTKSMSSMVSDTSCTFPSGDGIFWKHWIQSKDGQCGSPLVSTRDGFIVGIHSASNFTNTNNYFTSVPKNFMELLTNQEAQQWVSGWRLNADSVLWGGHKVFMVKPEEPFQPVKEATQL [T147S] | 0.0722 |  |
| MGESLFKGPRDYNPISSSICHLTNESDGHTTSLYGIGFGPFIITNKHLFRRNNGTLVVQSLHGVFKVKDTTTLQQHLVDGRDMIIIRMPKDFPPFPQKLKFREPQREEYICLVTTNFQTKSMSSMVSDTSCTFPSGDGIFWKHWIQTKDGQCGSPLVSTRDGFIVGIHSASNFTNTNNYFTSVPKNFMELLTNQEAQQWVSGWRLNADSVLWGGHKVFMVKPEEPFQPVKEATQL [R109Y] |  | 0.0664 |
| MGESLFKGPRDYNPISSSICHLTNESDGHTTSLYGIGFGPFIITNKHLFRRNNGTLVVQSLHGVFKVKDTTTLQQHLVDGRDMIIIRMPKDFPPFPQKLKFREPQREETICLVTTNFQTKSMSSMVSDTSCTFPSGDGIFWKHWIQTKDGQCGSPLVSTRDGFIVGIHSASNFTNTNNYFTSVPKNFMELLTNQEAQQWVSGWRLNADSVLWGGHKVFMVKPEEPFQPVKEATQL [R109T] |  | 0.0663 |
| MGESLFKGPRDYNPISSSICHLTNESDGHTTSLYGIGFGPFIITNKHLFRRNNGTLVVQSLHGVFKVKDTTTLQQHLVDGRDMIIIRMPKDFPPFPQKLKFREPQREERICLVTTNFQTKSMSSMVSDTSCTFPSGDGIFWKHWIQTKDGQCGSPLVSTRDGFIVGIHSASNFTNTNNYFTSVPKNFMELLTNQEAQQWVSIWRLNADSVLWGGHKVFMVKPEEPFQPVKEATQL [G202I] |  | 0.0567 |
